Out of some 52,000 compounds screened, about 1,700 (3.3%) were called active. Rule as the data show it: active = survival mostly below about 52% (no sharp cut-off); inactive = mostly above about 56%. The list shows a part of the results.
system: Wild type; assay: growth inhibition of S. aureus wild type versus tarO mutant, primary screen, teichoic acid synthesis inhibitors, RN4220, OD600 (AID 463173); settings: S. aureus RN4220 wild type/DeltatarO growth, OD600, 18 h, stronger effect = lower value, screened at 18.75 µg/mL (by protocol)

SMILES | survival
CCc1ccccc1N(C)C(=O)Cc1c(C(=O)O)c(C)cn1C | inactive: 73%
Cc1cc(C)cc(OCC(=O)NCCc2nc3ccccc3[nH]2)c1 | inactive: 129%
Cc1ccc(NC(=O)Cc2ccc(-n3c(C)nc4cccnc43)cc2)cc1C | inactive: 120%
O=C(O)CC1=C(c2cccs2)CCC1=O | inactive: 105%
Cc1cc(C)c(NC(=O)C(C)n2nc(-c3ccc(C)c(C)c3)ccc2=O)c(C)c1 (stereo unspecified) | inactive: 87%
COc1cccc(CNC(=O)CCc2cn(Cc3ccccc3Cl)c3ccccc23)c1 | inactive: 106%
CCCCOc1ccc(S(=O)(=O)Nc2ccc(-c3ccc(N4CCCCCC4)nn3)cc2)cc1 | inactive: 75%
COc1cc(/C=C/C(=O)O)cc(S(=O)(=O)N2CCc3ccccc32)c1OC | inactive: 107%
COC(=O)c1cccc(-n2c(CCC(=O)O)ccc2-c2ccc(OC)cc2)c1 | inactive: 72%
Cc1ccc(Cl)cc1NC(=O)C(C)n1nnc2sc(-c3ccccc3)cc2c1=O (stereo unspecified) | inactive: 89%
O=C(COc1ccc2oc3c(c2c1)CCCC3)Nc1ccc(Br)cc1 | inactive: 80%
COc1ccc(Cn2c(SCc3ccc(C(=O)NC4CCCC4)cc3)nc3ccncc32)cc1 | inactive: 80%
CCOC(=O)c1c(C)oc2ncnc(N3CCN(c4ccccc4OC)CC3)c12 | inactive: 73%
CN(C1CCCCC1)S(=O)(=O)Cc1ccccc1 | inactive: 94%
C=CCNC(=O)C(C)Sc1nnc2c(n1)[nH]c1ccccc12 (stereo unspecified) | inactive: 104%
CCCOc1cccc(C(=O)Nc2cccc(NC(=O)c3ccc(C(C)(C)C)cc3)c2)c1 | inactive: 76%
COc1cc(OC)cc(C(=O)Nc2ccccc2-c2nc3ccccc3s2)c1 | inactive: 41%
CN(C)c1ccc(C(CNC(=O)c2ccc(C(C)(C)C)cc2)N2CCOCC2)cc1 (stereo unspecified) | inactive: 88%
COc1ccc2[nH]c(C)c(CCNS(=O)(=O)c3cc(F)ccc3OC)c2c1 | inactive: 87%
COc1ccc(CCNC(=O)C2(c3cccs3)CCOCC2)cc1OC | inactive: 91%
Cc1coc2cc3oc(=O)c(CCC(=O)NCc4ccc(Cl)cc4)c(C)c3cc12 | inactive: 88%
Cc1ccc(NCCOc2ccccc2)c(C)c1 | inactive: 107%
COc1ccc(-c2nc3c4ccccc4n(CC(=O)Nc4cc(F)ccc4F)c(=O)n3n2)cc1 | inactive: 77%
CCOc1ccc(OC(=O)c2cn(-c3ccc(C)cc3)c(=O)c3ccccc23)cc1 | inactive: 74%
CCCCC(=O)Nc1ccccc1C(=O)OCc1cc(=O)n2nc(C3CCCCC3)sc2n1 | inactive: 45%
COc1cc(-c2ccno2)ccc1S(=O)(=O)N1CCN(c2ccc(C(C)=O)cc2)CC1 | inactive: 60%
